# Results as given in the supplement of paper PMC4604168 (melanoma cell lines).
# The list shows a part of the results. Many values rest on one well or one pass, so single values are uncertain.
# System: COLO800
# Test: cell count relative to DMSO control; melanoma cells; higher = more viable cells
# Conditions: library dose: low library concentration; 72 h
# 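Also: cell number obtained by counting DAPI-stained nuclei in high-throughput microscope images with image analysis software, screen run in 1,536-well plates.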
row,Structure (SMILES),cell count
1,"COc1cc(Nc2ncc(F)c(Nc3ccc4c(n3)NC(=O)C(C)(C)O4)n2)cc(OC)c1OC [Tamatinib] + COC(=O)c1sccc1S(=O)(=O)Nc1ccc(Nc2ccccc2)cc1OC [GSK0660] (first compound 0.4 µM, partner dose 1 µM)",66.4%
2,"O=C(O)c1ccc(-c2c[nH]c3ncc(-c4ccccc4)cc23)cc1C1CCCC1 + O=C(O)C(=O)Nc1sc2c(c1C(=O)O)CCNC2 [TCS401] (first compound 0.16 µM, partner dose 1.66667 µM)",89.2%
3,"C[C@@H]1CCN(C(=O)CC#N)C[C@@H]1N(C)c1ncnc2[nH]ccc12 + N#Cc1c(O)c2c(-c3ccc(-c4ccccc4O)cc3)csc2[nH]c1=O [A769662] (first compound 1 µM, partner dose 2 µM)",99.1%
4,"C[C@@H]1CCN(C(=O)CC#N)C[C@@H]1N(C)c1ncnc2[nH]ccc12 + CC(C)CCN1c2nc(Nc3cc(F)c(O)c(F)c3)ncc2N(C)C(=O)C1C [BID1870] (first compound 1 µM, partner dose 0.2 µM)",54.2%
5,"C[C@@H]1CCN(C(=O)CC#N)C[C@@H]1N(C)c1ncnc2[nH]ccc12 + O=c1cc(-c2cccc3c2Sc2ccccc2S3)oc(N2CCOCC2)c1 [KU55933] (first compound 1 µM, partner dose 1 µM)",96.1%
6,"O=C(O)c1ccc(-c2c[nH]c3ncc(-c4ccccc4)cc23)cc1C1CCCC1 + O=C1NC(=O)/C(=C/c2ccc(-c3ccc(F)cc3O)o2)S1 [AS252424] (first compound 0.16 µM, partner dose 1 µM)",82.7%
7,"O=C(O)c1ccc(-c2c[nH]c3ncc(-c4ccccc4)cc23)cc1C1CCCC1 + CCN(CC)CCCCNc1ncc2cc(-c3cc(OC)cc(OC)c3)c(NC(=O)NC(C)(C)C)nc2n1 [PD173074] (first compound 0.16 µM, partner dose 0.1 µM)",82.8%
8,"O=c1[nH]nc(Sc2ncc([N+](=O)[O-])s2)n1-c1ccc2c(c1)OCCO2 + CN1CCN(c2ccc3nc(-c4c(N)c5c(F)cccc5[nH]c4=O)[nH]c3c2)CC1 [Dovitinib] (first compound 0.2 µM, partner dose 0.1 µM)",64.7%
9,"COc1cc(Nc2ncc(F)c(Nc3ccc4c(n3)NC(=O)C(C)(C)O4)n2)cc(OC)c1OC [Tamatinib] + COc1ccc(-c2ccc3c(N4CCOCC4)nc(N4C[C@@H](C)O[C@@H](C)C4)nc3n2)cc1CO [KU0063794] (first compound 0.4 µM, partner dose 0.02 µM)",104%
10,"O=c1[nH]nc(Sc2ncc([N+](=O)[O-])s2)n1-c1ccc2c(c1)OCCO2 + CCCS(=O)(=O)Nc1ccc(F)c(C(=O)c2c[nH]c3ncc(Cl)cc23)c1F [PLX4720] (first compound 0.2 µM, partner dose 0.08 µM)",144%
11,"O=c1[nH]nc(Sc2ncc([N+](=O)[O-])s2)n1-c1ccc2c(c1)OCCO2 + COc1ccc(Cl)c(Nc2nc3ccccc3nc2NS(=O)(=O)c2cccc(NC(=O)C(C)(C)N)c2)c1 [XL147] (first compound 0.2 µM, partner dose 0.8 µM)",129%
12,"C[C@@H]1CCN(C(=O)CC#N)C[C@@H]1N(C)c1ncnc2[nH]ccc12 + COc1ccc2c(c1)CCC1C2CCC2(C)C(NCCCCCCN3C(=O)C=CC3=O)CCC12 [U73122] (first compound 1 µM, partner dose 0.4 µM)",90.7%
13,"CC1(C)NC(=O)N(c2ccc([N+](=O)[O-])c(C(F)(F)F)c2)C1=O [nilutamide] + c1cc(-c2cnn3cc(-c4ccc(OCCN5CCCCC5)cc4)cnc23)ccn1 [Dorsomorphin] (first compound 1 µM, partner dose 0.4 µM)",120%
14,"O=c1[nH]nc(Sc2ncc([N+](=O)[O-])s2)n1-c1ccc2c(c1)OCCO2 + C=CCNC1=C2C[C@@H](C)C[C@H](OC)[C@H](O)[C@@H](C)/C=C(\C)[C@H](OC(N)=O)[C@@H](OC)/C=C\C=C(/C)C(=O)NC(=CC1=O)C2=O [Tanespimycin] (first compound 0.2 µM, partner dose 0.002 µM)",87.2%
15,"O=C(Nc1cccc(Cl)c1)Nc1ncc(CCNc2ncnc3ccsc23)s1 + COc1cc(N2CCC(N3CCN(C)CC3)CC2)ccc1Nc1ncc(Cl)c(Nc2ccccc2S(=O)(=O)C(C)C)n1 [NVP-TAE684] (first compound 0.0008 µM, partner dose 0.08 µM)",61.3%
16,"O=c1[nH]nc(Sc2ncc([N+](=O)[O-])s2)n1-c1ccc2c(c1)OCCO2 + C[C@]1(c2nc3c(C(N)=O)cccc3[nH]2)CCCN1 [Veliparib] (first compound 0.2 µM, partner dose 1.4 µM)",131%

row,Structure (SMILES),cell count
1,"O=C(Nc1cccc(Cl)c1)Nc1ncc(CCNc2ncnc3ccsc23)s1 + CCCCCCCCCCCC1=C(O)C(=O)C=C(O)C1=O [Embelin] (first compound 0.0008 µM, partner dose 1.2 µM)",84.1%
2,"O=C(Nc1cccc(Cl)c1)Nc1ncc(CCNc2ncnc3ccsc23)s1 + c1cc(-c2cnn3cc(-c4ccc(OCCN5CCCCC5)cc4)cnc23)ccn1 [Dorsomorphin] (first compound 0.0008 µM, partner dose 0.4 µM)",82.1%
3,"C[C@@H]1CCN(C(=O)CC#N)C[C@@H]1N(C)c1ncnc2[nH]ccc12 + CCCCCCCCCCCC1=C(O)C(=O)C=C(O)C1=O [Embelin] (first compound 1 µM, partner dose 1.2 µM)",105%
4,"COc1cc(Nc2ncc(F)c(Nc3ccc4c(n3)NC(=O)C(C)(C)O4)n2)cc(OC)c1OC [Tamatinib] + Oc1nc(-c2ccc(C(F)(F)F)cc2)nc2c1CSCC2 [XAV939] (first compound 0.4 µM, partner dose 2 µM)",80.3%
5,"O=C(O)c1ccc(-c2c[nH]c3ncc(-c4ccccc4)cc23)cc1C1CCCC1 + COc1ccc2c(c1)CCC1C2CCC2(C)C(NCCCCCCN3C(=O)C=CC3=O)CCC12 [U73122] (first compound 0.16 µM, partner dose 0.4 µM)",110%
6,"O=c1[nH]nc(Sc2ncc([N+](=O)[O-])s2)n1-c1ccc2c(c1)OCCO2 + Nc1ccn([C@@H]2O[C@H](CO)[C@@H](O)C2(F)F)c(=O)n1 [gemcitabine] (first compound 0.2 µM, partner dose 0.0004 µM)",85.2%
7,"CC1(C)NC(=O)N(c2ccc([N+](=O)[O-])c(C(F)(F)F)c2)C1=O [nilutamide] + CCCCCCCCCCCC1=C(O)C(=O)C=C(O)C1=O [Embelin] (first compound 1 µM, partner dose 1.2 µM)",85%
8,"O=c1[nH]nc(Sc2ncc([N+](=O)[O-])s2)n1-c1ccc2c(c1)OCCO2 + CNC(=O)c1cc(Oc2ccc(NC(=O)Nc3ccc(Cl)c(C(F)(F)F)c3)cc2)ccn1 [sorafenib] (first compound 0.2 µM, partner dose 0.4 µM)",70.7%
9,"Cn1cncc1[C@@](N)(c1ccc(Cl)cc1)c1ccc2c(c1)c(-c1cccc(Cl)c1)cc(=O)n2C [tipifarnib] + COC(=O)c1sccc1S(=O)(=O)Nc1ccc(Nc2ccccc2)cc1OC [GSK0660] (first compound 0.01 µM, partner dose 1 µM)",88.5%
10,"O=c1[nH]nc(Sc2ncc([N+](=O)[O-])s2)n1-c1ccc2c(c1)OCCO2 + Cc1cn(-c2cc(NC(=O)c3ccc(C)c(Nc4nccc(-c5cccnc5)n4)c3)cc(C(F)(F)F)c2)cn1 [nilotinib] (first compound 0.2 µM, partner dose 0.2 µM)",111%
11,"O=c1[nH]nc(Sc2ncc([N+](=O)[O-])s2)n1-c1ccc2c(c1)OCCO2 + CC(C)C[C@H](NC(=O)[C@H](Cc1ccccc1)NC(=O)c1cnccn1)B(O)O [Bortezomib] (first compound 0.2 µM, partner dose 0.001 µM)",78.9%
12,"O=c1[nH]nc(Sc2ncc([N+](=O)[O-])s2)n1-c1ccc2c(c1)OCCO2 + Cc1nc(Nc2ncc(C(=O)Nc3c(C)cccc3Cl)s2)cc(N2CCN(CCO)CC2)n1 [dasatanib] (first compound 0.2 µM, partner dose 0.004 µM)",88.9%
13,"O=C(O)c1ccc(-c2c[nH]c3ncc(-c4ccccc4)cc23)cc1C1CCCC1 + Oc1nc(-c2ccc(C(F)(F)F)cc2)nc2c1CSCC2 [XAV939] (first compound 0.16 µM, partner dose 2 µM)",69%
14,"CC1(C)NC(=O)N(c2ccc([N+](=O)[O-])c(C(F)(F)F)c2)C1=O [nilutamide] + CCN(CC)CCCCNc1ncc2cc(-c3cc(OC)cc(OC)c3)c(NC(=O)NC(C)(C)C)nc2n1 [PD173074] (first compound 1 µM, partner dose 0.1 µM)",77.8%
15,"Cn1cncc1[C@@](N)(c1ccc(Cl)cc1)c1ccc2c(c1)c(-c1cccc(Cl)c1)cc(=O)n2C [tipifarnib] + c1cc(-c2cnn3cc(-c4ccc(OCCN5CCCCC5)cc4)cnc23)ccn1 [Dorsomorphin] (first compound 0.01 µM, partner dose 0.4 µM)",121%
16,"C[C@@H]1CCN(C(=O)CC#N)C[C@@H]1N(C)c1ncnc2[nH]ccc12 + COc1cc(N2CCC(N3CCN(C)CC3)CC2)ccc1Nc1ncc(Cl)c(Nc2ccccc2S(=O)(=O)C(C)C)n1 [NVP-TAE684] (first compound 1 µM, partner dose 0.08 µM)",95.2%
